Sequences and labels used below:
T1: human CD137-Fc fusion protein (Fc-fusion of the full extracellular domain of human CD137, R&D Systems 838-4B) (human, UniProt Q07011 24-186)
T1 construct: extracellular domain; Bought protein; also called huCD137-Fc; KD huCD137; not shown: Fc of human IgG (captured by an anti-human IgG-Fc antibody)
T1 sequence (looked up): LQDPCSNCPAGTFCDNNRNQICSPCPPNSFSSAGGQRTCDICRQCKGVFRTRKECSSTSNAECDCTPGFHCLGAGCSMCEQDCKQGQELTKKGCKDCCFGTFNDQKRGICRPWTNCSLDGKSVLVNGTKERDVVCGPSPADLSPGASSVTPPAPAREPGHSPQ

B1: lipocalin mutein of SEQ ID NO: 5 (designed binder, not shown: small tags and cut ends)
chain: ASDEEIQDVSGTWYLKAMTVDEGCRPWNIFSVTPMTLTTLEGGNLEAKVTMAIDGPAQEVKAVLEKTDEPGKYTADGGKHVAYIIRSHVKDHYIFYSEGVCDGSPVPGVWLVGRDPKNNLEALEDFEKAAGARGLSTESILIPRQSETSSPG
notes: expressed in E. coli with a C-terminal Strep-tag II; also called Tlc mutein
B2: lipocalin mutein of SEQ ID NO: 7 (designed binder, not shown: small tags and cut ends)
chain: B1 chain with K61N, K90R, K117E, A129T
notes: as for B1
B3: lipocalin mutein of SEQ ID NO: 10 (designed binder, not shown: small tags and cut ends)
chain: B1 chain with K48E, T67A, A129T, R144S, S146I
notes: as for B1
B4: lipocalin mutein of SEQ ID NO: 8 (designed binder, not shown: small tags and cut ends)
chain: B1 chain with A1V, K61R, K90E, K117E, A129T
notes: as for B1
B5: lipocalin mutein of SEQ ID NO: 9 (designed binder, not shown: small tags and cut ends)
chain: B1 chain with T38S, S146I
notes: as for B1
B6: lipocalin mutein of SEQ ID NO: 6 (designed binder, not shown: small tags and cut ends)
chain: B1 chain with A1T, K61R, V81D, K117E, A129T
notes: as for B1
B7: lipocalin mutein of SEQ ID NO: 11 (designed binder, not shown: small tags and cut ends)
chain: B1 chain with A1T, G42D, T67A, S146I
notes: as for B1
B8: negative control of SEQ ID NO: 3 (other)
chain: ASDEEIQDVSGTWYLKAMTVDRECPEMNLESVTPMTLTTLEGGNLEAKVTMLISGRSQEVKAVLEKTDEPGKYTADGGKHVAYIIRSHVKDHYIFYSEGECHGKPVPGVWLVGRDPKNNLEALEDFEKAAGARGLSTESILIPRQSETSSPG
notes: Negative control lipocalin

From patent US20180148484A1 (Pieris, published 2018) come the findings set out here.

The Kd is the concentration at which binding is half-saturated. Read a high Kd as a looser complex. As usually defined, the EC50 is the concentration needed to bring the measured effect to its halfway point.

Numbering of substitutions follows the chain as printed.

The first assay addresses T1, human CD137-Fc fusion protein …. The assay can be described thus: SPR (Biacore T200, 37 C), huCD137-Fc captured via anti-human IgG-Fc antibody, mutein as analyte, 1:1 model. How it is done: Prior to the protein measurements three regeneration cycles were performed for conditioning purposes. Regeneration of the derivatized chip surface was achieved by applying 3M MgCl₂ for 60 s followed by 10 mM glycine, pH 1.7 for 180 s. Anti-human IgG-Fc antibody was utilized to immobilize huCD137-Fc in a subsequent step and taken from the human antibody capture kit (GE Healthcare, BR-1008-39). It was immobilized on a CM5 sensor chip using standard amine coupling chemistry and the immobilization buffer included in the kit (10 mM sodium acetate pH 5.0), resulting in a ligand density of about 13000 resonance units (RU). The reference channel was treated accordingly.
HuCD137-Fc at a concentration of 0.5 μg/mL was captured on this surface for 180 s at a flow rate of 10 μL/min in HBS-EP+ buffer. No target protein was applied to the reference channel. Subsequently, the lipocalin muteins were applied in an appropriate dilution series in HBS-EP+ buffer at a flow rate of 30 μL/min. Regeneration of the derivatized chip surface was achieved as described above. Data were evaluated with Biacore T200 Evaluation software (V 2.0). Double referencing was used and the 1:1 Binding model was used to fit the raw data.
(In general: Surface plasmon resonance follows binding to a sensor surface in real time, without labels.)
B1 came in with a Kd of 162 nM.

B2: the affinity, expressed as Kd, was 110 nM.

The molecule B3 came in with a Kd of 112 nM.

Regarding B4, binding was characterised by a dissociation constant (Kd) of 151 nM.

On to B5, for which binding was put at a Kd of 209 nM.

Regarding B6, the Kd is 112 nM.

B7 registered a Kd of 269 nM.

Another assay concerns the target T2, human CD137 expressed on cells (human, UniProt Q07011 24-255).
T2 construct: whole, on cells; also called CHO-huCD137; CHO::hCD137
In words: FACS on CHO cells stably transfected with human CD137; anti-lipocalin primary and Alexa488 secondary antibody. How it is done: (§1) To perform the experiment, CD137-positive and negative Flp-In CHO cells were incubated with lipocalin muteins, and bound mutein was labeled using anti-lipocalin primary antibodies and fluorescently labeled secondary antibodies, which were detected by FACS analysis as described in the following.
(§2) 1×10⁵ cells per well were pre-incubated for 1 h in ice-cold PBS containing 5% fetal calf serum (PBS-FCS). Subsequently, a dilution series of lipocalin muteins and negative controls typically ranging from 10 μM to 1 nM was added to the cells and incubation was continued on ice for 1 h. Cells were washed twice in ice-cold PBS using centrifugation at 300 g and then incubated with a rabbit anti-lipocalin primary antibody (Pieris, (polyclonal rabbit anti-hNGAL and rabbit anti-hTLC; Pieris) for 30 min on ice. Cells were washed twice in ice-cold PBS, re-suspended in PBS-FCS and incubated 30 min on ice with a secondary anti-rabbit antibody labelled with the fluorescent dye Alexa488 (Life Technologies). Cells were subsequently washed and analyzed using a Guava easyCyte HT Flow cytometer. Typically, a gate was set to exclude non-viable cells and 5.000 events were recorded. Numerical results are expressed as the geometric mean of the fluorescence intensity.
The molecule B2 yielded an EC50 of 67.6 nM.

For the molecule B4, the midpoint of the response, the EC50, lay at 235 nM.

In turn, B5 showed an EC50 of 113 nM.

On to B6, for which the EC50 was found to be 61.1 nM.

In turn, B7 came in with an EC50 of 53 nM.

The next assay has as its target T2, human CD137 expressed on cells. In words: FACS on CHO cells stably transfected with human CD137. On the procedure:
as §1, §2
In the case of B8, the binding result was “no binding”.

The target of the next assay is T1, human CD137-Fc fusion protein …. In words: SPR, huCD137-Fc captured via anti-human IgG-Fc antibody. The source says:
FIG. 1: provides typical measurements of on-rate and off-rate by surface plasmon resonance (SPR) for the interaction of various representative lipocalin muteins (SEQ ID NOs indicated in the graph) with human CD137 (Fc-fusion) as the target. The targets were immobilized via an anti-human IgG-Fc antibody, which was in turn immobilized on a sensor chip using standard amine coupling chemistry. The lipocalin muteins were employed as the soluble analyte which was flowed at different concentrations across the chip surface. […] The dissociation constants resulting from a fit (1:1 binding model) of the depicted data for all SEQ ID NOs are provided in Table 1.
Prior to the protein measurements three regeneration cycles were performed for conditioning purposes. Regeneration of the derivatized chip surface was achieved by applying 3M MgCl₂ for 60 s followed by 10 mM glycine, pH 1.7 for 180 s. Anti-human IgG-Fc antibody was utilized to immobilize huCD137-Fc in a subsequent step and taken from the human antibody capture kit (GE Healthcare, BR-1008-39). […]
HuCD137-Fc at a concentration of 0.5 μg/mL was captured on this surface for 180 s at a flow rate of 10 μL/min in HBS-EP+ buffer. […] Data were evaluated with Biacore T200 Evaluation software (V 2.0). […]
Take B8: the binding result is “no binding”.
